# Results as given in the supplement of paper PMC8728848.
# This is one part of the list.
# B1: LecB LY19 (Pseudomonas aeruginosa) (protein)
# chain: MATQGVFTLPANTQFGVTAFANSAGTQTVNVQVNNETVATFTGQSTNNGIIGSKVLNSGGGGKVQILVSVNGRSSDLVSAQVILANELNFALVGSEDSTDNDYNDAVVVINWPLG
# How the values were obtained:
# Experiment in all cases: glycan array binding signal (z-score within array); higher = stronger binding
# Details in all cases: glycan notation: IUPAC condensed, linker removed
# [1] = biological target: Gal(b1-4)Glc
# Procedure, shortened: (§1)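 The Consortium for Functional Glycomics database supplied 3228 glycan arrays, of which those lacking an available protein sequence were dropped. The binding signal, a within-array Z-score, was averaged across arrays of the same protein sequence and across linkers. Negative scores can be read as non-binding.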
# [2] = biological target: Gal(b1-4)Glc6S
# Procedure, shortened: as §1
# [3] = biological target: Gal(b1-4)GlcNAc
# Procedure, shortened: as §1
# [4] = biological target: Gal(b1-4)GlcNAc(a1-6)Gal(b1-4)GlcNAc
# Procedure, shortened: as §1
# [5] = biological target: Gal(b1-4)GlcNAc(b1-2)Man
# Procedure, shortened: as §1
# [6] = biological target: Gal(b1-4)GlcNAc(b1-2)Man(a1-3)Man(b1-4)GlcNAc(b1-4)GlcNAc
# Procedure, shortened: as §1
# [7] = biological target: Gal(b1-4)GlcNAc(b1-2)Man(a1-3)[Gal(b1-4)GlcNAc(b1-2)Man(a1-6)]Man(b1-4)GlcNAc(b1-4)GlcNAc
# Procedure, shortened: as §1
# [8] = biological target: Gal(b1-4)GlcNAc(b1-2)Man(a1-3)[Gal(b1-4)GlcNAc(b1-2)Man(a1-6)]Man(b1-4)GlcNAc(b1-4)[Fuc(a1-6)]GlcNAc
# Procedure, shortened: as §1
# [9] = biological target: Gal(b1-4)GlcNAc(b1-2)Man(a1-3)[Gal(b1-4)GlcNAc(b1-2)Man(a1-6)][Gal(b1-4)GlcNAc(b1-4)]Man(b1-4)GlcNAc(b1-4)[Fuc(a1-6)]GlcNAc
# Procedure, shortened: as §1
# [10] = biological target: Gal(b1-4)GlcNAc(b1-2)Man(a1-3)[Gal(b1-4)GlcNAc(b1-2)Man(a1-6)][GlcNAc(b1-4)]Man(b1-4)GlcNAc(b1-4)[Fuc(a1-6)]GlcNAc
# Procedure, shortened: as §1
# [11] = biological target: Gal(b1-4)GlcNAc(b1-2)Man(a1-3)[GlcNAc(b1-2)Man(a1-6)]Man(b1-4)GlcNAc(b1-4)GlcNAc
# Procedure, shortened: as §1
# [12] = biological target: Gal(b1-4)GlcNAc(b1-2)Man(a1-3)[GlcNAc(b1-4)][Gal(b1-4)GlcNAc(b1-2)Man(a1-6)]Man(b1-4)GlcNAc(b1-4)GlcNAc
# Procedure, shortened: as §1
# [13] = biological target: Gal(b1-4)GlcNAc(b1-2)Man(a1-3)[Man(a1-6)]Man(b1-4)GlcNAc(b1-4)GlcNAc
# Procedure, shortened: as §1
# [14] = biological target: Gal(b1-4)GlcNAc(b1-2)Man(a1-6)Man(b1-4)GlcNAc(b1-4)GlcNAc
# Procedure, shortened: as §1
# [15] = biological target: Gal(b1-4)GlcNAc(b1-2)Man(a1-6)[GlcNAc(b1-2)Man(a1-3)]Man(b1-4)GlcNAc(b1-4)GlcNAc
# Procedure, shortened: as §1
# [16] = biological target: Gal(b1-4)GlcNAc(b1-2)Man(a1-6)[Man(a1-3)]Man(b1-4)GlcNAc(b1-4)GlcNAc
# Procedure, shortened: as §1
# [17] = biological target: Gal(b1-4)GlcNAc(b1-2)[Gal(b1-4)GlcNAc(b1-4)]Man(a1-3)[Gal(b1-4)GlcNAc(b1-2)Man(a1-6)]Man(b1-4)GlcNAc(b1-4)GlcNAc
# Procedure, shortened: as §1
# [18] = biological target: Gal(b1-4)GlcNAc(b1-2)[Gal(b1-4)GlcNAc(b1-4)]Man(a1-3)[Gal(b1-4)GlcNAc(b1-2)[Gal(b1-4)GlcNAc(b1-6)]Man(a1-6)]Man(b1-4)GlcNAc(b1-4)GlcNAc
# Procedure, shortened: as §1
# [19] = biological target: Gal(b1-4)GlcNAc(b1-2)[Gal(b1-4)GlcNAc(b1-4)]Man(a1-3)[GlcNAc(b1-4)][Gal(b1-4)GlcNAc(b1-2)Man(a1-6)]Man(b1-4)GlcNAc(b1-4)GlcNAc
# Procedure, shortened: as §1
# [20] = biological target: Gal(b1-4)GlcNAc(b1-2)[Gal(b1-4)GlcNAc(b1-4)]Man(a1-3)[GlcNAc(b1-4)][Gal(b1-4)GlcNAc(b1-2)[Gal(b1-4)GlcNAc(b1-6)]Man(a1-6)]Man(b1-4)GlcNAc(b1-4)GlcNAc
# Procedure, shortened: as §1
# [21] = biological target: Gal(b1-4)GlcNAc(b1-2)[Gal(b1-4)GlcNAc(b1-6)]Man(a1-6)[Gal(b1-4)GlcNAc(b1-2)Man(a1-3)]Man(b1-4)GlcNAc(b1-4)GlcNAc
# Procedure, shortened: as §1
# [22] = biological target: Gal(b1-4)GlcNAc(b1-2)[Gal(b1-4)GlcNAc(b1-6)]Man(a1-6)[Gal(b1-4)GlcNAc(b1-2)Man(a1-3)]Man(b1-4)GlcNAc(b1-4)[Fuc(a1-6)]GlcNAc
# Procedure, shortened: as §1
binder,measurement,setting,value
B1,glycan array binding signal (z-score),[1],-0.522
same,glycan array binding signal (z-score),[2],-0.482
same,glycan array binding signal (z-score),[3],-0.551
same,glycan array binding signal (z-score),[4],-0.55
same,glycan array binding signal (z-score),[5],-0.443
same,glycan array binding signal (z-score),[6],-0.552
same,glycan array binding signal (z-score),[7],-0.536
same,glycan array binding signal (z-score),[8],-0.001
same,glycan array binding signal (z-score),[9],0.518
same,glycan array binding signal (z-score),[10],0.308
same,glycan array binding signal (z-score),[11],-0.461
same,glycan array binding signal (z-score),[12],-0.553
same,glycan array binding signal (z-score),[13],-0.369
same,glycan array binding signal (z-score),[14],-0.536
same,glycan array binding signal (z-score),[15],-0.536
same,glycan array binding signal (z-score),[16],0.834
same,glycan array binding signal (z-score),[17],-0.3
same,glycan array binding signal (z-score),[18],-0.268
same,glycan array binding signal (z-score),[19],-0.553
same,glycan array binding signal (z-score),[20],-0.555
same,glycan array binding signal (z-score),[21],-0.47
same,glycan array binding signal (z-score),[22],0.846
